# Measured values as given in the supplement of paper PMC12217912.
# This is one part of the list. The full chains were built here from the parent and the listed change. Values near 0.05 are background.
# B1: TEV protease; numbered along this chain (parent)
# chain: MGESLFKGPRDYNPISSSICHLTNESDGHTTSLYGIGFGPFIITNKHLFRRNNGTLVVQSLHGVFKVKDTTTLQQHLVDGRDMIIIRMPKDFPPFPQKLKFREPQREERICLVTTNFQTKSMSSMVSDTSCTFPSGDGIFWKHWIQTKDGQCGSPLVSTRDGFIVGIHSASNFTNTNNYFTSVPKNFMELLTNQEAQQWVSGWRLNADSVLWGGHKVFMVKPEEPFQPVKEATQL
# Variants of: B1
# Experiment: raw area under fraction-flipped curve 0-4 h after induction (AUC4h, not background-subtracted), DNA-recorder readout of cleavage of the substrate (dimensionless); higher = more cleavage of the substrate by the protease variant
# Conditions: temperature: 34 °C; time window: 0-4 h after rhamnose induction
# Protocol: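 In vivo DNA recorder in E. coli TOP10(DE3) ΔrhaA at 34 °C. Each TEVp single-site mutant (parent TEVp 0) is paired with a single-site variant of the 7-mer TEVs (canonical ENLYFQ|S). The substrate sits between flexible linkers in a Bxb1-sfGFP-TEVs-SsrA fusion, so cleavage stabilises Bxb1 and speeds flipping of a recombination array, read by NGS. The value is the raw area under the fraction-flipped curve over 0-4 h after rhamnose induction (AUC4h), with ≥20 reads per time point. It is not background-subtracted; inactive controls average about 0.047.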
# 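Note: Bxb1 expression induced with 0.2% (w/v) L-rhamnose at OD600 near 0.5, cultures sampled hourly, flipped fraction per protease–substrate barcode pair counted by paired-end Illumina sequencing.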
Variant,area with substrate CNLYFQS,area with substrate HNLYFQS,area with substrate LNLYFQS,area with substrate PNLYFQS,area with substrate TNLYFQS,area with substrate WNLYFQS,area with substrate YNLYFQS,area with substrate FNLYFQS,area with substrate GNLYFQS,area with substrate KNLYFQS,area with substrate MNLYFQS,area with substrate SNLYFQS,area with substrate INLYFQS,area with substrate NNLYFQS,area with substrate VNLYFQS,area with substrate QNLYFQS,area with substrate RNLYFQS
MGESLFKGPRDYNPISSSICHLTNESDGHTTSLYGIGFGPFIITNKHLFRRNNGTLVVQSLHGVFKVKDKTTLQQHLVDGRDMIIIRMPKDFPPFPQKLKFREPQREERICLVTTNFQTKSMSSMVSDTSCTFPSGDGIFWKHWIQTKDGQCGSPLVSTRDGFIVGIHSASNFTNTNNYFTSVPKNFMELLTNQEAQQWVSGWRLNADSVLWGGHKVFMVKPEEPFQPVKEATQL [T70K],0.0527,0.126,0.0541,0.0743,0.0585,0.0364,0.0559,–,–,–,–,–,–,–,–,–,–
MGESLFKGPRDYNPISSSICHLTNESDGHTTSLYGIGFGPFIITNKHLFRRNNGTLVVQSLHGVFKVKDNTTLQQHLVDGRDMIIIRMPKDFPPFPQKLKFREPQREERICLVTTNFQTKSMSSMVSDTSCTFPSGDGIFWKHWIQTKDGQCGSPLVSTRDGFIVGIHSASNFTNTNNYFTSVPKNFMELLTNQEAQQWVSGWRLNADSVLWGGHKVFMVKPEEPFQPVKEATQL [T70N],0.0585,0.0534,–,0.047,0.052,0.0527,0.0423,0.0475,0.0505,0.0505,0.0652,0.0527,–,–,–,–,–
MGESLFKGPRDYNPISSSICHLTNESDGHTTSLYGIGFGPFIITNKHLFRRNNGTLVVQSLHGVFKVKDPTTLQQHLVDGRDMIIIRMPKDFPPFPQKLKFREPQREERICLVTTNFQTKSMSSMVSDTSCTFPSGDGIFWKHWIQTKDGQCGSPLVSTRDGFIVGIHSASNFTNTNNYFTSVPKNFMELLTNQEAQQWVSGWRLNADSVLWGGHKVFMVKPEEPFQPVKEATQL [T70P],0.0608,0.0604,0.02,0.0662,–,0.056,–,–,0.0574,0.054,0.0736,0.0587,0.0541,0.0582,0.0388,–,–
MGESLFKGPRDYNPISSSICHLTNESDGHTTSLYGIGFGPFIITNKHLFRRNNGTLVVQSLHGVFKVKDTGTLQQHLVDGRDMIIIRMPKDFPPFPQKLKFREPQREERICLVTTNFQTKSMSSMVSDTSCTFPSGDGIFWKHWIQTKDGQCGSPLVSTRDGFIVGIHSASNFTNTNNYFTSVPKNFMELLTNQEAQQWVSGWRLNADSVLWGGHKVFMVKPEEPFQPVKEATQL [T71G],0.051,0.0532,–,0.0631,0.0561,0.0715,0.0554,0.06,0.0405,0.0795,–,0.0486,0.0677,–,–,–,–
MGESLFKGPRDYNPISSSICHLTNESDGHTTSLYGIGFGPFIITNKHLFRRNNGTLVVQSLHGVFKVKDTKTLQQHLVDGRDMIIIRMPKDFPPFPQKLKFREPQREERICLVTTNFQTKSMSSMVSDTSCTFPSGDGIFWKHWIQTKDGQCGSPLVSTRDGFIVGIHSASNFTNTNNYFTSVPKNFMELLTNQEAQQWVSGWRLNADSVLWGGHKVFMVKPEEPFQPVKEATQL [T71K],0.0732,–,–,0.0337,–,0.0617,–,0.0654,–,–,–,–,–,–,–,–,–
MGESLFKGPRDYNPISSSICHLTNESDGHTTSLYGIGFGPFIITNKHLFRRNNGTLVVQSLHGVFKVKDTNTLQQHLVDGRDMIIIRMPKDFPPFPQKLKFREPQREERICLVTTNFQTKSMSSMVSDTSCTFPSGDGIFWKHWIQTKDGQCGSPLVSTRDGFIVGIHSASNFTNTNNYFTSVPKNFMELLTNQEAQQWVSGWRLNADSVLWGGHKVFMVKPEEPFQPVKEATQL [T71N],0.0625,0.0539,–,–,0.0579,0.0439,0.0552,0.0852,–,–,–,–,0.0727,0.0679,0.0646,0.0625,0.101
MGESLFKGPRDYNPISSSICHLTNESDGHTTSLYGIGFGPFIITNKHLFRRNNGTLVVQSLHGVFKVKDTQTLQQHLVDGRDMIIIRMPKDFPPFPQKLKFREPQREERICLVTTNFQTKSMSSMVSDTSCTFPSGDGIFWKHWIQTKDGQCGSPLVSTRDGFIVGIHSASNFTNTNNYFTSVPKNFMELLTNQEAQQWVSGWRLNADSVLWGGHKVFMVKPEEPFQPVKEATQL [T71Q],0.0783,0.0544,0.0639,0.0622,–,0.052,0.085,0.0608,0.0492,–,–,0.0773,0.0599,0.0633,–,–,–
MGESLFKGPRDYNPISSSICHLTNESDGHTTSLYGIGFGPFIITNKHLFRRNNGTLVVQSLHGVFKVKDTRTLQQHLVDGRDMIIIRMPKDFPPFPQKLKFREPQREERICLVTTNFQTKSMSSMVSDTSCTFPSGDGIFWKHWIQTKDGQCGSPLVSTRDGFIVGIHSASNFTNTNNYFTSVPKNFMELLTNQEAQQWVSGWRLNADSVLWGGHKVFMVKPEEPFQPVKEATQL [T71R],0.0567,0.0611,0.0595,0.0811,0.101,0.0677,–,–,–,0.0655,–,0.0639,0.0668,–,0.0596,–,–
MGESLFKGPRDYNPISSSICHLTNESDGHTTSLYGIGFGPFIITNKHLFRRNNGTLVVQSLHGVFKVKDTTTCQQHLVDGRDMIIIRMPKDFPPFPQKLKFREPQREERICLVTTNFQTKSMSSMVSDTSCTFPSGDGIFWKHWIQTKDGQCGSPLVSTRDGFIVGIHSASNFTNTNNYFTSVPKNFMELLTNQEAQQWVSGWRLNADSVLWGGHKVFMVKPEEPFQPVKEATQL [L73C],0.0525,0.0733,0.0487,0.0682,0.0614,0.051,–,0.0507,0.058,–,0.0656,–,0.0422,0.0535,–,0.0483,–
